Common to all, as to test: Primary Screen for Target Class Profiling of Small Molecule Inhibitors of Methyltransferases
Assay [1] has as its target Glycine N-methyltransferase (Homo sapiens) (UniProt Q14749). The conditions noted are these: purified enzyme, MTase-Glo SAH luminescence; measured here: GNMT inhibition; at 40 µM; stronger effect = lower value. The method, boiled down: (§1)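 Each enzyme was reacted with SAM and its substrate, with compounds tested once at 40 uM; SAH formed was read by MTase-Glo luminescence.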
Assay [2] addresses Guanidinoacetate N-methyltransferase (Homo sapiens) (UniProt Q14353). Particulars: purified enzyme, MTase-Glo SAH luminescence; measured here: GAMT inhibition; at 40 µM; stronger effect = lower value. The procedure, abridged: as §1
For assay [3], the target named is Histamine N-methyltransferase (Homo sapiens) (UniProt P50135). Particulars: purified enzyme, MTase-Glo SAH luminescence; measured here: HNMT inhibition; at 40 µM; stronger effect = lower value. The procedure, abridged: as §1
For assay [4], the target named is Nicotinamide N-methyltransferase (Homo sapiens) (UniProt P40261). The conditions noted are these: purified enzyme, MTase-Glo SAH luminescence; measured here: NNMT inhibition; at 40 µM; stronger effect = lower value. The procedure, abridged: as §1
Assay [5] has as its target Phenylethanolamine N-methyltransferase (Homo sapiens) (UniProt P11086). Particulars: purified enzyme, MTase-Glo SAH luminescence; measured here: PNMT inhibition; at 40 µM; stronger effect = lower value. The procedure, abridged: as §1

Values joined by “and” are separate entries in the source; they are usually repeats but may differ in a detail not shown here. Equal values may be shown once. The list shows a part of the results. These are further read-outs of the screen, such as a control signal, another cell line or another target. No call is given for them.
% is scaled to controls: 0 for no effect and ±100 for the full control effect.

As for `Cn1ccc2cc3c(cc21)CCN3C(=O)Nc1cccnc1`, the activity change, negative = inhibition in assay [1] is -52.6%; in assay [2], -2.72%; in assay [3], -7.28%; in assay [4] it was -17.6%; in assay [5], -23.1%.

With `COC(=O)c1cc2n(n1)CC(C)(C(=O)NC1CCCCC1)N(c1cccc(SC)c1)C2=O` (stereo not given), the activity change, negative = inhibition is -0.414% in assay [1]; 8.49% in assay [2]; 0.991% in assay [3]; 0.266% in assay [4]; 0.743% in assay [5].

Turning to `Cc1ccc(Cn2c(=O)c3ccccc3n3c(CCC(=O)NCCc4ccccc4)nnc23)cc1`, the activity change, negative = inhibition in assay [1] was -13.1%; in assay [2], 5.08%; in assay [3] it was 1.59%; in assay [4] it was -15.8%; in assay [5], -3.11%.

On to `CC1(C)CC2C(C1)C1(C)CCC13OC3(CO)C2O` (stereo not given), for which the activity change, negative = inhibition in assay [1] is 4.65%; in assay [2] it was 0.476%; in assay [3], 9.83%; in assay [4], -13%; in assay [5], 3.38%.

With `C[C@@H]1O[C@@H](OC[C@H]2O[C@@H](OCc3ccccc3)[C@H](O)[C@@H](O)[C@@H]2O)[C@H](O)[C@H](O)[C@H]1O`, the activity change, negative = inhibition was 1.53% in assay [1]; -3.43% in assay [2]; 7.6% in assay [3]; -12.5% in assay [4]; -1.27% in assay [5].

Consider `O=C(O)CP(=O)(O)O`, for which the activity change, negative = inhibition in assay [1] was 2.58%; in assay [2] it was 6.73%; in assay [3], 2.61%; in assay [4], -7.38%; in assay [5], -2.76%.

Turning to `COc1ccccc1CCC(=O)N1CC(F)(F)C[C@H]1c1nnc(C)o1`, the activity change, negative = inhibition was -2.62% in assay [1]; -0.082% in assay [2]; 1.48% in assay [3]; -8.39% in assay [4]; -11.2% in assay [5].

For the molecule `Cc1noc(-c2cccn3c(CNC(=O)c4ccccc4C)nnc23)n1`, the activity change, negative = inhibition was -3.32% in assay [1]; 1.9% in assay [2]; 1.27% in assay [3]; 2.67% in assay [4]; 2.37% in assay [5].

On to `CCCCN1C(=O)c2ccccc2C(C(=O)Nc2nncs2)C12CCCC2` (stereo not given), for which the activity change, negative = inhibition was -2.99% in assay [1]; -2.54% in assay [2]; -8.9% in assay [3]; -10.6% in assay [4]; -5.5% in assay [5].

As to `O=C(Nc1ccc(F)cc1)N[C@H]1[C@H](O)[C@@H](N2CCCC2)[C@@H]2OC[C@H]1O2`, the activity change, negative = inhibition was -0.976% in assay [1]; 1.64% in assay [2]; 1.52% in assay [3]; -4.72% in assay [4]; 7.5% in assay [5].

Regarding `Cc1ccccc1CSc1nnc2n(CCC(C)C)c(=O)c3ccccc3n12`, the activity change, negative = inhibition in assay [1] was -5.81%; in assay [2], 3.98%; in assay [3], 1.71%; in assay [4], -13.1%; in assay [5] it was -3.17%.

Regarding `CC1CCCC(NC(=O)Cn2c(=O)oc3cc(S(=O)(=O)N4CCCC4)ccc32)C1C` (stereo not given), the activity change, negative = inhibition was -6.04% in assay [1]; 0.665% in assay [2]; -4.09% in assay [3]; -0.46% in assay [4]; -10.6% in assay [5].

As to `Cc1cccc(CCNC(=O)Cn2c(=O)oc3cc(S(=O)(=O)NCc4ccccc4)ccc32)c1`, the activity change, negative = inhibition in assay [1] is 3.93%; in assay [2], 0%; in assay [3], 0.365%; in assay [4], -5.91%; in assay [5], 3.21%.

`Cc1nc(CN2C(=O)OC3(CCN(C(=O)Cc4ccc(O)cc4)CC3)C2(C)c2ccccc2)cs1` (stereo not given): the activity change, negative = inhibition in assay [1] was -5.34%; in assay [2] it was -6.47%; in assay [3] it was -6.67%; in assay [4] it was -4.3%; in assay [5] it was -2.39%.

In the case of `Cc1ccc(C(=O)N2CCCC(n3c(C)cnc3C3CCOCC3)C2)s1` (stereo not given), the activity change, negative = inhibition was -3.71% in assay [1]; -8.26% in assay [2]; -4.89% in assay [3]; -10.4% in assay [4]; -2.37% in assay [5].

For the molecule `Cc1cnc(-c2ccncc2)n1C1CCN(S(=O)(=O)c2cccc(F)c2)CC1`, the activity change, negative = inhibition was -4.12% and -8.6% in assay [1]; -4.23% and 3.81% in assay [2]; -0.942% and -8.15% in assay [3]; -8.86% and -9.18% in assay [4]; -19.6% and -3.95% in assay [5].

`Cc1noc(C)c1[S+](=O)([O-])N1CC(Oc2ccc(F)cc2F)C1`: the activity change, negative = inhibition in assay [1] was -6.95%; in assay [2] it was -2.97%; in assay [3], -2.99%; in assay [4] it was -8.67%; in assay [5] it was -1.12%.

Take `Cc1ccc(Cn2c(=O)c3ccccc3n3c(SCC(=O)Nc4ccc(C)cc4C)nnc23)cc1`: the activity change, negative = inhibition worked out at 2.4% in assay [1]; 0% in assay [2]; 9.75% in assay [3]; 1.99% in assay [4]; 2.88% in assay [5].

Take `COc1ccc(NC(=O)CCc2nnc3n(CCCOC(C)C)c(=O)c4ccccc4n23)cc1`: the activity change, negative = inhibition is -3.22% in assay [1]; -5.52% in assay [2]; -5.47% in assay [3]; -0.295% in assay [4]; -12.7% in assay [5].

Consider `COc1cc(N2CCC(O)CC2)ccc1Nc1nc(Nc2ccccc2S(=O)(=O)C(C)C)c2[nH]cnc2n1`, for which the activity change, negative = inhibition in assay [1] is -22.3%; in assay [2] it was 4.97%; in assay [3] it was -44.9%; in assay [4], -15.6%; in assay [5], -1.6%.

Consider `Cc1ccc2c(c1)c(-n1cccc1)c1n2CC(C)(C(=O)NC2CCCC2)N(Cc2ccccn2)C1=O` (stereo not given), for which the activity change, negative = inhibition is -7.29% in assay [1]; -0.866% in assay [2]; -4.63% in assay [3]; -20.5% in assay [4]; -4.35% in assay [5].

With `CCCOc1ccc(S(=O)(=O)N2CCN(CCO)CC2)cc1-c1nc2c(CCC)cn(CC)c2c(=O)[nH]1`, the activity change, negative = inhibition in assay [1] is -6.88%; in assay [2], 12.6%; in assay [3], 6.03%; in assay [4] it was -20.9%; in assay [5], 6.21%.

For `O=C(CC1CCN(C(=O)Cc2ccccc2F)C1)NC1CC1` (stereo not given), the activity change, negative = inhibition in assay [1] was -0.079%; in assay [2], 2.2%; in assay [3], 1.19%; in assay [4] it was -2.6%; in assay [5], -3.23%.

Take `COc1ccc(C(=O)N(Cc2ccccc2)S(=O)(=O)c2ccc3c(c2)n(C)c(=O)n3C)cc1`: the activity change, negative = inhibition in assay [1] is 0.162%; in assay [2], 3.44%; in assay [3], 5.87%; in assay [4] it was -11%; in assay [5] it was -0.207%.

As for `Cc1ccc(NC(=O)Cn2nc3n(Cc4ccc(F)cc4)c(=O)c4ccccc4n3c2=O)cc1C`, the activity change, negative = inhibition was -2.72% in assay [1]; 1.67% in assay [2]; -1% in assay [3]; -1.31% in assay [4]; -3.65% in assay [5].

Regarding `COc1cccc(CN2C(=O)c3nc4ccccc4n3CC2(C)C(=O)NC2CCC(C)CC2)c1OC` (stereo not given), the activity change, negative = inhibition in assay [1] is 3.09%; in assay [2] it was 0.049%; in assay [3], 6.34%; in assay [4], 2.08%; in assay [5], 1.77%.

`C=CC(=O)Nc1cccc(Nc2nc(Nc3ccc(OCCOC)cc3)ncc2F)c1`: the activity change, negative = inhibition in assay [1] is -55.8%; in assay [2], -24%; in assay [3], -50%; in assay [4], -64.9%; in assay [5], -31.1%.

Take `COc1ccc(S(=O)(=O)N2C[C@@H]3C[C@H](C2)c2ccc(NC(=O)c4ccc(C#N)cc4)c(=O)n2C3)cc1`: the activity change, negative = inhibition is 0.061% in assay [1]; 0.029% in assay [2]; 1.28% in assay [3]; -4.17% in assay [4]; 7.16% in assay [5].

Turning to `CCOc1ccccc1CN1C(=O)c2ccc(-c3ccco3)n2CC1(C)C(=O)NC1CCCCC1C` (stereo not given), the activity change, negative = inhibition in assay [1] is -9.04%; in assay [2], 6.28%; in assay [3] it was -6.54%; in assay [4], -10.9%; in assay [5], -2.8%.
